# PMC4336329 (PLoS ONE, 2015)
# In all, about 310,000 compounds went through this assay and about 2,200 (0.71%) showed an effect of 50% or more. The effect is printed as a negative number. This is one part of the list.
# Molecular target: human ether-à-go-go-related gene (hERG) potassium channel (human, UniProt Q12809)
# Experiment: primary screen, population patch clamp on CHO cells stably expressing hERG
# Sequence of human ether-à-go-go-related gene (hERG) potassium channel (Q12809 whole entry, looked up): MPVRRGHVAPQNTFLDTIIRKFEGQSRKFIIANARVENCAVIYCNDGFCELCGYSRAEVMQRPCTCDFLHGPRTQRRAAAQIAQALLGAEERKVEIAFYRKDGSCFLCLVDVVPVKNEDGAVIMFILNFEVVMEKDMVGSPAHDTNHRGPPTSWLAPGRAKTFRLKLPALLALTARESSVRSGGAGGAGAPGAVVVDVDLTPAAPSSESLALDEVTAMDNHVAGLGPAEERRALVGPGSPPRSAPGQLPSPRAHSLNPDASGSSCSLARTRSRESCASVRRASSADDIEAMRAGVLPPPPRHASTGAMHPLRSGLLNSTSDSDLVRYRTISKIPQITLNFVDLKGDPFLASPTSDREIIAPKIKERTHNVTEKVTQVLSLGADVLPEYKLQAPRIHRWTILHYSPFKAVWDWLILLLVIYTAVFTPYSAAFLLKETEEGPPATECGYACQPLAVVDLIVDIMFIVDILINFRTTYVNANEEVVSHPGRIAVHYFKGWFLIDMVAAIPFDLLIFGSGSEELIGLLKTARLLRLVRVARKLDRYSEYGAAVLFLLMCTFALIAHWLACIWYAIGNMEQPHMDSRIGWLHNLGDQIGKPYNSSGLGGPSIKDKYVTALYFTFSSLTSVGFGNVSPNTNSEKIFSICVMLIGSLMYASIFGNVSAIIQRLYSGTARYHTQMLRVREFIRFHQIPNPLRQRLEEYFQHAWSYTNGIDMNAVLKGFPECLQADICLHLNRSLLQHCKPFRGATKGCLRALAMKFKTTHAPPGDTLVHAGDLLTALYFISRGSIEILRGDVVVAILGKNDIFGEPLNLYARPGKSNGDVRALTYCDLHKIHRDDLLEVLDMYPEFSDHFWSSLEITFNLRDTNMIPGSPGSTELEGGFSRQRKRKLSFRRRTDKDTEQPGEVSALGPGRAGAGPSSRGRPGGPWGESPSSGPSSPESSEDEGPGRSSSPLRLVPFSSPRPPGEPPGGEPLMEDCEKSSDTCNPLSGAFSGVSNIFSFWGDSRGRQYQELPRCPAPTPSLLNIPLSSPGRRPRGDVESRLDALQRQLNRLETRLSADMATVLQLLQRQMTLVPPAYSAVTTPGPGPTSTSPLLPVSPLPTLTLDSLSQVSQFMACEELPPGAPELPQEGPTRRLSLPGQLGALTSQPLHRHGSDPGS
row,SMILES,"hERG current change (%, negative = inhibition) at 1uM"
1,Cc1nn(-c2ncc(C(F)(F)F)cc2Cl)c(=O)n1-c1c(F)cccc1F,12%
2,S=c1[nH]nc(-c2c[nH]c3ccccc23)o1,14.8%
3,CCOC(=O)N1CCN(S(=O)(=O)c2ccc(C(=O)Nc3nnc(C)o3)cc2)CC1,7.3%
4,O=C(Nc1ccccc1)C1=C[C@@H](c2coc3ccccc3c2=O)C[C@@H](OCCCCO)O1,5.86%
5,C[C@H](O)CC(=O)[O-].[Na+],7.33%
6,COC(=O)c1sc(NC(=O)COc2cccc3ccccc23)nc1C,12.7%
7,CN(C)S(=O)(=O)c1ccc(N2CCCC2)c(C(=O)Nc2cccc(F)c2)c1,-2.24%
8,NC(=O)Cn1c(=O)n(-c2ccccc2)c(=O)c2oc3ccccc3c21,2.38%
9,O=c1c2ccccc2nc(/C=C/c2ccc(Br)cc2)n1CCCO,11.9%
10,Cc1ccc2c(c1)N(CC(=O)NCCCN1CCCCC1)C(=O)c1cccnc1O2,0.911%
11,O=S(=O)(c1ccc2nc(Nc3ccccc3)ccc2c1)N1CCCCC1,8.1%
12,Cc1ccc2c(c1)c(=O)c1c3n2CCN(CC2CO2)C3CC1 (centres unmarked),8.3%
13,O=C(COC(=O)CSc1ccc([N+](=O)[O-])cc1)NCC1CCCO1 (centres unmarked),0.848%
14,Clc1ccc(Nc2nc(-c3cccnc3)cs2)cc1,3.11%
15,COc1ccc(CCNC(=O)CC2SC(=NCCc3ccccc3)NC2=O)cc1OC (centres unmarked),12%
16,Cn1c(=O)n(C)c2cc([N+](=O)[O-])c(N3CCN(C(=O)c4ccc(Cl)cc4)CC3)cc21,-17.7%
17,CS(=O)(=O)N(CC(=O)N1CCC(C(N)=O)CC1)c1ccc(Oc2ccccc2)cc1,-7.56%
18,CCOC(=O)C1(Cc2ccccc2)C(=O)Nc2ccccc21 (centres unmarked),6.8%
19,COc1ccc(C(CNC(=O)COc2ccc(F)cc2Br)N2CCCC2)cc1 (centres unmarked),-6.05%

row,SMILES,"hERG current change (%, negative = inhibition) at 1uM"
1,CCOc1cccc(C(=O)Nc2cccc(C(=O)NCC(C)C)c2)c1,-3.66%
2,Cc1ccc(Cn2ccc(NC(=O)c3cc(-c4ccc(F)cc4)on3)n2)cc1,12%
3,Nc1ncc(Br)cc1S(=O)(=O)N1CCCCCC1,15.5%
4,N#CC1(NC(=O)CSc2nnc(Nc3ccccc3F)s2)CCCC1,12.8%
5,CCN(CCCNC(=O)CN1C(=O)COc2ccccc21)c1ccccc1,6.59%
6,CCOCC(O)CSCc1ccc(Cl)cc1 (centres unmarked),0.921%
7,COc1cc(/C=C2/C(=O)N(c3ccc(C(=O)O)cc3)N=C2C)cc(OC)c1O,12.4%
8,CC(Sc1nc2ncc(Cl)cc2[nH]1)C(=O)c1c(N)n(C)c(=O)n(C)c1=O (centres unmarked),7.56%
9,CCCCCC(C)NC(=O)c1ccoc1C (centres unmarked),-8.48%
10,CC(C)n1ncc2c(C(=O)Nc3cccc(C#N)c3)cc(C3CC3)nc21,-9.89%
11,COC(Cn1cc(C)c(=O)[nH]c1=O)OC,13.7%
12,Cc1ccc(C2C(C#N)=C(N)OC3=C2C(=O)CCC3)s1 (centres unmarked),14.8%
13,FC(F)(F)c1ccc(Cl)c(NC(=S)N/N=C/c2ccccc2Cl)c1,12.1%
14,CCn1c(CNC(=O)Cc2ccc(OC)cc2)nnc1SCC(=O)c1ccc(Br)cc1,-4.68%
15,COc1cc2[nH]c(=O)n(CCCCCC(=O)NCCc3c[nH]c4ccccc34)c(=O)c2cc1OC,6.66%
16,Cc1ccc(NC(=O)OCCNC(=O)OC(C)C)cc1,4.7%
17,CCOC(=O)C1=C(CSc2nc3ccccc3s2)NC(=O)NC1c1cc(C)ccc1C (centres unmarked),4.72%
18,CN(C(=O)CN1C(=O)NC(C)(CCc2ccccc2)C1=O)c1ccccc1 (centres unmarked),21.5%
19,COc1ccc(CNc2ncnc3cc(OC)c(OC)cc23)cc1OC,23.7%

row,SMILES,"hERG current change (%, negative = inhibition) at 1uM"
1,O=P(c1ccc2c(c1)OCCO2)(N1CCOCC1)N1CCOCC1,18.2%
2,COc1ccc(C2/C(=C(\O)c3ccc(OC)c(Cl)c3)C(=O)C(=O)N2CCN(C)C)cc1 (centres unmarked),12.2%
3,Cc1ccccc1Oc1ccc(S(=O)(=O)NCCC(=O)O)cc1,17.3%
4,Cc1ccccc1C(=O)Nc1cc(NC(=O)c2ccccc2C)cc(C(=O)O)c1,14%
5,Cc1cccc(NS(=O)(=O)c2c(C)nc3scc(C)n3c2=O)c1,-1.52%
6,O=C(Cn1c2ccccc2c(=O)c2ccccc21)Nc1cccc(F)c1,12.8%
7,COC(=O)c1ccc2[nH]c3cccc(/C(=C/c4ccccc4)c4ccccc4)c3c2c1,11%
8,O=C(C1=C[C@@H](c2ccccc2)C[C@@H](OCCCCO)O1)N1CCOCC1,8.55%
9,Cc1ccc(NC(=O)c2cnc(SCC(=O)NCC3CCCO3)n(C)c2=O)cc1C (centres unmarked),-8.96%
10,CCN(CC)C(=O)c1ccc(NC(=O)c2c(C)noc2C)cc1,4.43%
11,COCCCNC(=O)CSc1nc2ccccc2c(=O)n1Cc1ccc2c(c1)OCO2,11.6%
12,COc1ccc(CNC(=O)COC(=O)c2c(NC(C)=O)sc(C)c2C)cc1,8.4%
13,COC(=O)CN1C(=O)C(O)(CC(=O)c2ccc(C)cc2)c2cc(Br)ccc21 (centres unmarked),-3.95%
14,Cc1ccn2c(=O)nc(SCC(=O)NCc3ccco3)nc2c1,5.38%
15,CCOC(=O)c1c(C)oc2c1c(CN1CCN(C(=O)OCC)CC1)c(O)c1ccccc12,10.7%
16,CCOC(=O)c1cnc2c([N+](=O)[O-])cnn2c1C,8.79%
17,CC[n+]1c(-c2ccccc2)csc1Nc1c(C)n(C)n(-c2ccccc2)c1=O.[Br-],8.62%
18,COCCn1c(SCC(=O)N2CCc3ccccc32)nc2c(c1=O)SC(C)C2 (centres unmarked),-2.7%
